Laboratory results: PubChem BioAssay AID485294 (National Center for Advancing Translational Sciences (NCATS), 2010)
Out of some 370,000 compounds screened, about 150 (0.041%) were called active. The shares of active, inactive and inconclusive entries below differ from those in the screen. Calls come from the whole dose curve; as a rule, active = well fitted inhibition curve with a large enough effect; inconclusive = small, poorly fitted or top-dose-only effect; inactive = flat fitted curve, though single readings scatter. Potencies of inconclusive entries are left out as doubtful fits.

Target: Beta-lactamase (Escherichia coli (strain K12)) (UniProt P00811)
Assay: qHTS Inhibitors of AmpC Beta-Lactamase (assay with detergent); note: nearly all actives have a fitted effect of over 25% in size;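 for activity change, negative = inhibition: 0% = no-compound wells and -100% = no-enzyme wells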
Conditions: AmpC hydrolysis of nitrocefin, absorbance 480 nm, 0.01% Triton; activity change, negative = inhibition: at 114 µM (top of the series)
Method in brief: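 AmpC (5.3 nM in the dispensed reagent) in 20 mM phosphate pH 7.0 with 0.01% (detergent screen) or 0.0001% Triton X-100 was preincubated with compounds for 15 min at room temperature. Nitrocefin was then added from an 800 uM solution, and hydrolysis was followed at 480 nm.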
Potency is the fitted concentration of half-maximal effect; tags give direction and shape of the fitted curve.

Chain of UniProt P00811 (P00811 whole entry, looked up): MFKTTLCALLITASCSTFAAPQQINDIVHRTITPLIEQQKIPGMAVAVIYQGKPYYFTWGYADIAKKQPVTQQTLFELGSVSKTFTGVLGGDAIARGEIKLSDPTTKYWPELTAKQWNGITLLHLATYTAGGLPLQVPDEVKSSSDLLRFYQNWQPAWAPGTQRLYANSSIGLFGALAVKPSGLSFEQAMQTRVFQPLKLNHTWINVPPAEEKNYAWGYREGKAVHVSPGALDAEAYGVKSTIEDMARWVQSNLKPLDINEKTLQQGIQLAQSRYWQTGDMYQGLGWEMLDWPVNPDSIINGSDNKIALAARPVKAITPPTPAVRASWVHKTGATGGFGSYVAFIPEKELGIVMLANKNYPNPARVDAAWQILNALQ

| Compound | activity change, negative = inhibition | Potency |
| --- | --- | --- |
| CCOc1cc(C2/C(=C(/O)c3ccc(OC(C)C)cc3)C(=O)C(=O)N2CCCOC)ccc1O (centres undefined) | inactive: -5.53% |  |
| CCOc1cc(CNCC(C)C)c(Cl)cc1OCC(=O)Nc1ccccc1 |  | inconclusive [inhibitor, full curve, poor fit] |
| Cc1cccc(-n2c(O)c(/C=N/NC(=O)c3ccccc3Cl)c3ccccc3c2=O)n1 | inactive: -12.1% |  |
| CCc1cc(=O)oc2cc(OCC(=O)O)c(Cl)cc12 |  | inconclusive [inhibitor, full curve, poor fit] |
| CCN=C1SC(C(=O)Nc2cccc(C)c2)CC(=O)N1CC (centres undefined) |  | inconclusive [inhibitor, full curve, poor fit] |
| COc1cccc(C(=O)N2CCN(c3ccccn3)CC2)c1 | inactive: -5.17% |  |
| COc1cccc(C2c3c(oc4ccc(F)cc4c3=O)C(=O)N2CCCN2CCOCC2)c1 (centres undefined) |  | inconclusive [inhibitor, partial curve] |
| COc1cc2c(c(OC)c1OC)-c1ccc(OC)c(=O)cc1[C@@H](NC(C)=O)CC2 |  | inconclusive [inhibitor, full curve] |
| CCS(=O)(=O)N1CCN(c2ccc(S(=O)(=O)N3CCOCC3)cc2)CC1 | inactive: -13.5% |  |
| CCc1ccccc1NC1=NCC(=O)N1C1CCCCC1 |  | inconclusive [inhibitor, partial curve, poor fit] |
| O=C(O)CCn1c(=O)sc2ccccc21 | inactive: -10.1% |  |
| CN(C)c1ccc(NC(=O)COC(=O)Cn2nnc3ccccc32)cc1 | inactive: -0.674% |  |
| COC(=O)c1ccc(/C=C/C(=O)OCC(=O)Nc2ncc(Cl)cc2Cl)cc1 | inactive: -6.69% |  |
| Cc1cccc2sc(NC(=O)C3CCCO3)nc12 (centres undefined) |  | inconclusive [inhibitor, full curve, poor fit] |
| CN(C)/N=C/c1ccc(N2CCOCC2)cc1 |  | inconclusive [inhibitor, full curve, poor fit] |
| COc1ccccc1CN1C(=O)CNC1=S |  | inconclusive [inhibitor, single point] |
| CC(C)C1C(c2ccccc2)N(C)C(c2ccccc2)CC1(O)c1ccccc1 (centres undefined) | inactive: -13.1% |  |
| COc1ccccc1OP(=O)(Nc1ccc(Br)cc1)Oc1ccccc1OC |  | inconclusive [inhibitor, partial curve, poor fit] |
| O=C(c1ccc(OCCN2CCCCC2)cc1)c1c(-c2ccc(O)cc2)sc2cc(O)ccc12 |  | inconclusive [inhibitor, full curve, poor fit] |
| CCC1C(=O)NCCN1C(=O)c1ccc2nc(Cc3cccc(Cl)c3)oc2c1 (centres undefined) |  | inconclusive [inhibitor, full curve] |
| Cc1cc(Nc2ccc(F)cc2C)n2nc(C)nc2n1 |  | inconclusive [inhibitor, full curve] |
| COc1cc(S(=O)(=O)N2CCC(c3nc4ccccc4s3)CC2)ccc1S(=O)(=O)N1CC(C)CC(C)C1 (centres undefined) |  | inconclusive [inhibitor, partial curve] |

| Compound | activity change, negative = inhibition | Potency |
| --- | --- | --- |
| CCN1C(=NCc2cc(OC)c(OC)c(OC)c2)N[C@@H](c2cccc(C(F)(F)F)c2)C(C(=O)OC)=C1C |  | inconclusive [inhibitor, full curve, poor fit] |
| Nc1c(N(Cc2ccccc2)C(=O)COc2cccc(Cl)c2)c(=O)[nH]c(=O)n1Cc1ccccc1 |  | inconclusive [inhibitor, full curve, poor fit] |
| Cc1nn(C)c(C)c1C(C)NC(=O)c1cc(COc2cncc(Cl)c2)on1 (centres undefined) | inactive: 1.32% |  |
| CSC1=C(C#N)C(=O)NC(c2ccccc2O)S1 (centres undefined) | inactive: -6.74% |  |
| Cc1ccc(C)c(C(=O)OCC(=O)Nc2cccc(S(=O)(=O)NC3=NCCCCC3)c2)c1 |  | inconclusive [inhibitor, single point] |
| COC(=O)CCCC(=O)NC1CCCc2c1cnn2-c1ccc(F)cc1F (centres undefined) |  | inconclusive [inhibitor, full curve, poor fit] |
| CCOc1ccc2ccccc2c1CNCCc1ccc(S(N)(=O)=O)cc1 |  | inconclusive [inhibitor, full curve, poor fit] |
| CSc1nsc2nc(=O)c(/C=C3\C(C)=Nc4ccc(C)cc43)c(N)n12 |  | inconclusive [inhibitor, partial curve, poor fit] |
| COc1cc(NC(=O)CN2C(=O)C(C)N(c3ccc(C)cc3)C2=O)cc(OC)c1 (centres undefined) |  | inconclusive [inhibitor, full curve, poor fit] |
| O=C(NNC(=O)c1ccccc1Br)c1ccncc1 |  | inconclusive [inhibitor, full curve, poor fit] |
| CN(N)c1nc(-c2ccccc2)cc(-c2ccccc2)n1 |  | inconclusive [inhibitor, full curve] |
| CC(C)(C)[C@H](NC(=O)c1ccc(N)c(Cl)c1)C(=O)N1CCC[C@H]1C(=O)N[C@H](C#N)Cc1nn[nH]n1 |  | inconclusive [inhibitor, partial curve, poor fit] |
| CCN1CCN(C(=O)Cn2nc(-c3ccc(Cl)cc3)ccc2=O)CC1 |  | inconclusive [inhibitor, single point] |
| Cc1ccc(C(=O)N(Cc2ccc(N(C)C)cc2)Cc2ccco2)cc1 | inactive: 18.6% |  |
| O=[N+]([O-])c1cccc2ccc(N3CCOCC3)nc12 |  | inconclusive [inhibitor, full curve, poor fit] |
| CC1CCCN(S(=O)(=O)c2ccc(C(=O)Nc3nnc(C4=COCCO4)o3)cc2)C1 (centres undefined) |  | inconclusive [inhibitor, full curve, poor fit] |
| c1nc2sc3c(c2c2nnnn12)CCCC3 |  | inconclusive [inhibitor, full curve, poor fit] |
| CCN(Cc1ccccc1)S(=O)(=O)c1c(C)n(C)c(=O)n(C)c1=O |  | inconclusive [inhibitor, full curve, poor fit] |
| CC1=C(C)CC2C(=O)N(c3cccc4ccccc34)C(=O)C2C1 (centres undefined) |  | inconclusive [inhibitor, full curve, poor fit] |
| Cc1ccc([N+](=O)[O-])cc1NC(=O)Nc1cccc(F)c1 | inactive: 1.91% |  |
| COc1ccc(C(=O)NC(C)c2csc(C)n2)cc1OC1CCN(C(C)=O)CC1 (centres undefined) |  | inconclusive [inhibitor, full curve, poor fit] |
| COc1ccc(CNC(=O)CN2C(=O)C(c3ccccc3)Oc3cccnc32)cc1 (centres undefined) |  | inconclusive [inhibitor, partial curve] |

| Compound | activity change, negative = inhibition | Potency |
| --- | --- | --- |
| Cc1cccc(Nc2cc(=O)[nH]c(=O)[nH]2)c1 | inactive: -3.95% |  |
| CN(c1ccccc1)S(=O)(=O)c1ccc(Cl)c(C(=O)NCC(c2ccco2)N2CCCC2)c1 (centres undefined) |  | inconclusive [inhibitor, full curve, poor fit] |
| COC(=O)C1=NN(C(C)=O)C2(CC(=O)N(c3cccc(C)c3)C2=O)C1 (centres undefined) |  | inconclusive [inhibitor, partial curve, poor fit] |
| CC(C)(C)C(=O)NC(=S)Nc1cc(C(=O)O)ccc1Cl |  | inconclusive [inhibitor, full curve, poor fit] |
| O=C(CC1c2ccccc2Oc2ccccc21)Nc1ccccc1C(F)(F)F |  | inconclusive [inhibitor, full curve, poor fit] |
| O=C(Nc1cccc(-c2cc3ccccc3oc2=O)c1)c1ccc(Br)o1 |  | inconclusive [inhibitor, single point] |
| CN(C)c1c2ccccc2nc2c(F)c(F)c(F)c(F)c12 |  | inconclusive [inhibitor, single point] |
| Cc1ccc(OCCn2cc(C(=S)N3CCCC3)c3ccccc32)cc1C | inactive: 4.2% |  |
| CC(C)NC(=O)c1nc2c(nnn2Cc2cccc(Cl)c2)c(=O)[nH]1 |  | inconclusive [inhibitor, full curve, poor fit] |
| COc1cc(C(=O)Oc2c(Sc3ccc(C)cc3)c(C)nn2-c2ccccc2)cc(OC)c1OC |  | inconclusive [inhibitor, full curve, poor fit] |
| CCOC(=O)C(NC(=O)c1ccccc1)=C1CCCCC1 | inactive: -7.28% |  |
| CCOC(=O)CSc1ncc(OC)c(Sc2ccc(Cl)cc2)n1 |  | inconclusive [inhibitor, full curve, poor fit] |
| Cc1ccc(OC(=O)c2ccccc2P(=O)(O)O)cc1 |  | inconclusive [inhibitor, partial curve, poor fit] |
| COc1ccc(N2C(=O)CC(N3CCN(c4ccccc4)CC3)C2=O)cc1 (centres undefined) |  | inconclusive [inhibitor, partial curve, poor fit] |
| CCN(CC)CCNC(=O)c1ccc(NS(=O)(=O)c2ccc3c(c2)OCCO3)cc1 |  | inconclusive [inhibitor, full curve, poor fit] |
| O=C(c1ccc(S(=O)(=O)NCC2CCCO2)cc1)N1CCN(c2ccccc2)CC1 (centres undefined) |  | inconclusive [inhibitor, single point] |
| Cc1ccc(CC(=O)Nc2ccc(Cl)cn2)cc1 | inactive: 2.36% |  |
| COc1ccc(OC)c(N/C(C)=C/C(=O)c2ccc(C)o2)c1 |  | inconclusive [inhibitor, full curve] |
| CN1CCC(=O)N(CCSc2ccccc2)CC1 |  | inconclusive [inhibitor, partial curve, poor fit] |
| CN(Cc1cc([N+](=O)[O-])c2cccnc2c1O)C1CCCCC1 |  | inconclusive [inhibitor, partial curve, poor fit] |
